# Measurements taken from article PMC11527973, “Efficient characterization of multiple binding sites of small molecule imaging ligands on amyloid-beta, tau and alpha-synuclein” (European Journal of Nuclear Medicine and Molecular Imaging, 2024).
# Read-outs that look alike come from different tables or passages of the source. Entries with a single value are a further part of the results.
# Target: recombinant K18 tau fibrils (Homo sapiens, UniProt P10636)
# Assay: SPR binding kinetics on immobilized K18-tau fibrils
# Parameters: K18 tau was detected using a monoclonal tau antibody (anti-tau 4-repeat isoform RD4, clone 1E1/A6); made in house; host or cells: E. coli
# Conditions: surface HC1500M, sum2exp model, two components per analyte, read-out: KD, equilibrium dissociation constant
# Method: SPR measurements were conducted in HEPES-buffered saline (HBS, Teknova, USA) buffer at 20 °C using Biacore instruments T200 and S200 (Cytiva, Uppsala, Sweden). Aβ42, tau, and αSyn recombinant fibrils were immobilized in the flow cell of sensor chips produced by Xantec (Düsseldorf, Germany) and Cytiva by coupling fibril amine groups to sulfo-N-hydroxysuccinimide (sulfo-NHS)-activated carboxylic acid groups on the chip surface. Since no nonbinding fibril(s) were available, the reference flow cell remained empty. […]
# The immobilized fibrils were stable for a few days. Kinetic constants for binding were determined by injection of a dilution series of 5–8 concentrations of ligand in HBS buffer at a flow rate of 30 µL/minute in duplicate ("full kinetics").
# The data was evaluated using BiaEvaluate v2.03 software (Cytiva, Sweden). Binding kinetics were analyzed globally using different kinetic models, including 1 + 1, a sum of two exponentials model ("heterogeneous ligand" in terms of BiaEvaluate, sum2exp), and a sum of three exponentials model (sum3exp) that was created using the script editor of the software.
# Sequence of UniProt P10636 (P10636 561-685 limits assumed): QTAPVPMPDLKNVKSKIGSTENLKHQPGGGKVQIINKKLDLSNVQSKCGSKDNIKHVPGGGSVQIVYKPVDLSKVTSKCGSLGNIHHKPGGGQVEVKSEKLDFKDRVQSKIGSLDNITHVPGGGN
smiles,measurement,setting,value
"O=C(O)Cc1cc(-c2ccc(-c3ccc(C(=O)O)s3)s2)sc1-c1ccc(-c2sc(-c3ccc(-c4ccc(C(=O)O)s4)s3)cc2CC(=O)O)s1 [h-FTAA, Hepta-formylthiophene acetic acid]",Kd,first binding component,2.81 µM
same,Kd,second binding component,112 µM
